The whole screen tested about 110,000 compounds, of which about 230 (0.21%) showed an effect of 50% or more. The list shows a part of the results.
Molecular target: DPAP1 (Plasmodium falciparum, UniProt Q8IIJ9)
Assay: primary screen, percent inhibition; read by cleavage of a fluorogenic dipeptide substrate; higher = more effect of the substance
Set-up: species or system P. falciparum D10 trophozoite lysates; single well
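Also: 30 min substrate incubation versus DMSO and 10 µM JCP410 controls.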

DPAP1, sequence (Q8IIJ9 whole entry, looked up): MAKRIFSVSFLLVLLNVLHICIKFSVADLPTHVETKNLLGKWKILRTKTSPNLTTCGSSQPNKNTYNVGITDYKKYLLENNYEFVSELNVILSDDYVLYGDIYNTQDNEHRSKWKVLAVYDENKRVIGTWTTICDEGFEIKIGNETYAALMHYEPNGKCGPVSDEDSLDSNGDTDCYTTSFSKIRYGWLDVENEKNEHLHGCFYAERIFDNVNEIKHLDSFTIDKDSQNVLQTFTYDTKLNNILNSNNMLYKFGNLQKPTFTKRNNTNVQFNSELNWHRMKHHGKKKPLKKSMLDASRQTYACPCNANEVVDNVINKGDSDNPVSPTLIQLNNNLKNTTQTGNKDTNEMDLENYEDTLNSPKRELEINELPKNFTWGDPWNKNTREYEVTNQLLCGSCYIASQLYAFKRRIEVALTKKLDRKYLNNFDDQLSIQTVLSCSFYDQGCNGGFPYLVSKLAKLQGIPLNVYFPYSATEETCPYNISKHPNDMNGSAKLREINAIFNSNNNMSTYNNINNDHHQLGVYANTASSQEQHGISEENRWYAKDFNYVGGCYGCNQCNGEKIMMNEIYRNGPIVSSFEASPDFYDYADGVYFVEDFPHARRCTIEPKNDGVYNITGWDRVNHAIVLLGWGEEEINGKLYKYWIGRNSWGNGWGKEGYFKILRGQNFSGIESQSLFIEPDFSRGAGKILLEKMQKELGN

Row | SMILES | % Inhibition @ 10 uM [%]
1 | O=C(NCCc1ccccc1)C12CC3CC(CC(C3)C1)C2 | -2.59
2 | O=C(c1ccco1)N(Cc1ccccc1)C(Cc1ccccc1)c1cccs1 (centres unmarked) | -2.91
3 | CCCCOc1ccc(C(=O)NC(CC(C)C)C(=O)NCC#N)cc1 (centres unmarked) | -3.04
4 | O=C(CCCN1C(=O)c2ccccc2Sc2ncccc21)N1CCCCCC1 | 0.436
5 | Cc1ccc(CNC(=O)Cn2ccc3cc(S(=O)(=O)N4CCC(C)CC4)ccc32)cc1 | -0.717
6 | Cc1ccc(-c2cn3c(n2)sc2cc(C(=O)NCCN4CCCC4)ccc23)c(C)c1 | 9.08
7 | O=[N+]([O-])c1ccccc1CN1CCCCCC1 | -5.41
8 | CN1CCC(N(C)C2CCN(Cc3ccccc3)CC2)CC1 | 0.162
9 | CCC1(C)Cc2c(sc3nc(SC)nc(O)c23)CO1 (centres unmarked) | 8.9
10 | O=C(Cn1ccc2cc(S(=O)(=O)N3CCCC3)ccc21)NCc1ccccc1 | -6.62
11 | CCOc1ccc(CCNC(=O)CSc2nc(C)c(Cl)c(C)c2C#N)cc1OCC | 2.7
12 | COc1ccc(C2CC(c3ccccc3)=NN2c2ccc(N)cc2)cc1 (centres unmarked) | 1.92
13 | Cn1nc(C(=O)NCCC2=CCCCC2)c2c1-c1ccccc1SC2 | 22.5
14 | CC(C)CCn1c(=O)c2ccccc2n2c(CCC(=O)NCC3CCCO3)nnc12 (centres unmarked) | 3.54
15 | CCCCCCC(C(N)=O)C1=NC(C)(C)Cc2ccccc21 (centres unmarked) | -1.5
16 | Cc1ccc(C2Oc3ccccc3C3=C2C(c2cccs2)n2ncnc2N3)cc1 (centres unmarked) | -1.62
17 | COc1cc(-n2c(C)nc3cc(C(=O)NCc4cccnc4)ccc32)cc(OC)c1OC | 0.992
18 | CCN(CC)S(=O)(=O)c1cc(C(=O)Nc2ccc(Br)cc2)ccc1Br | -0.294
19 | CCC(NS(=O)(=O)c1cccc2nsnc12)C12CC3CC(CC(C3)C1)C2 (centres unmarked) | -3.04
20 | Cc1ccc(NC(=O)c2ccoc2C)c(Br)c1 | 1.57
21 | NC(=O)C1CCCN(Cc2ccc(Cl)cc2)C1 (centres unmarked) | 2.99
22 | CC(=O)N(C)c1ccc(NC(=O)c2ccc(C(C)(C)C)c(Br)c2)cc1 | -1.49
23 | CCn1c2ccccc2c2nnc(NCCOc3cccc(C(F)(F)F)c3)nc21 | -3.1
24 | O=S(=O)(NC1CCCCC1)c1ccc(-c2ccccc2)cc1 | -0.294
25 | O=C1Oc2ccccc2N/C1=C\C(=O)c1ccccc1 | 3.96

Row | SMILES | % Inhibition @ 10 uM [%]
26 | COCCCNS(=O)(=O)c1csc(C(N)=O)c1 | 6.35
27 | COc1ccc(Cl)cc1C(=O)Nc1ccc(Cl)cc1C(=O)O | 16.5
28 | CC12CC3CC(C1)CC(CC(=O)O)(C3)C2 | -1.62
29 | CCOC(=O)C1=C(C)NC(=O)NC1c1ccc(C)cc1 (centres unmarked) | 4.38
30 | CC(C)Oc1ccc(CNC(=O)c2ccc(CS(=O)c3ccc(Cl)cc3)o2)cc1 (centres unmarked) | 0.951
31 | O=C(COc1cccc2ccccc12)Nc1cccc(O)c1 | -1.82
32 | Cc1nn(C(C)C(=O)NC2CCCc3ccccc32)c(=O)c2c1sc1ccccc12 (centres unmarked) | -1.33
33 | CCc1ccc(CNC(=O)c2ccc(CN3CC(=O)N4CCCCC4C3=O)cc2)cc1 (centres unmarked) | 1.97
34 | Cc1ccccc1C(=O)Nc1ccc(S(=O)(=O)N2CCCC2)cc1 | -1.28
35 | COc1cccc(C(=O)N2CCN(Cc3ccccc3C(F)(F)F)CC2)c1 | 2.3
36 | Cc1ccc(CN(c2ccc(C(=O)N3CCN(C)CC3)cc2)S(C)(=O)=O)cc1 | 0.83
37 | C=CCn1c(=N)c(C#N)cc2c(=O)n3ccccc3nc21 | 1.35
38 | CCCOc1ccc(/C=C2\SC(N3CCOCC3)=NC2=O)cc1 | -13.1
39 | Cc1cc(C)c(S(=O)(=O)NC2CC(C)(C)NC(C)(C)C2)cc1Br | -3.25
40 | CC(=O)c1cccc(NC(=O)COc2ccc(S(=O)(=O)NC3CCCCC3)cc2)c1 | -11.7
41 | COc1cc2c(C(=O)c3ccc(Cl)cc3)c(C)oc2c2ccccc12 | -3.71
42 | Cc1ccc(C2(O)C[N+](c3cc(C)ccc3C)=C3CCCCN32)cc1 (centres unmarked) | -1.12
43 | CC1(C)C(C=C(Cl)Cl)C1C(=O)Nc1ccc(S(N)(=O)=O)cc1 (centres unmarked) | 3.44
44 | COC(=O)C1=C(O)/C(=C\c2ccc(-c3cccc(Cl)c3)o2)N=C1C | 2.09
45 | N#CCNC(=O)[C@@H](Cc1cccnc1)NC(=O)OCc1ccccc1 | -3.14
46 | O=C(NCc1ccccc1C(F)(F)F)c1ccc2ccccc2c1 | 1.88
47 | Clc1ccccc1Sc1nc2ccccc2n2cnnc12 | -2.42
48 | O=C1C2C3CCC(C3)C2C(=O)N1c1cc(Cl)ccc1Cl (centres unmarked) | -4.43
49 | CC(CCc1ccco1)NC(=O)c1cnc(N2CCCC2)nc1 (centres unmarked) | -4.97
50 | C/C(=C\c1ccco1)C1C(C#N)=C(N)Oc2[nH]nc(-c3ccccc3)c21 (centres unmarked) | 8.6

Row | SMILES | % Inhibition @ 10 uM [%]
51 | N#Cc1c(NC(=O)C2CC2)sc2c1CCCCC2 | 4.57
52 | O=C(CCc1nnc2ccc(N3CCOCC3)nn12)NCC1CCN(Cc2ccc(F)cc2)CC1 | 0.0147
53 | Cc1c(C(=O)NCc2ccccn2)oc2ccc(S(=O)(=O)N3CC(C)CC(C)C3)cc12 (centres unmarked) | 1.23
54 | Cc1cc(S(=O)(=O)N2CCN=C2c2ccccc2)c(Cl)cc1Cl | -2.98
55 | O=C(CCC1CCCCC1)Nc1ccc(N2CCOCC2)c2nonc12 | -0.994
56 | CC1(C)CC(=O)C2=C(C1)N(c1cccc(O)c1)C(=O)CC2c1ccccc1 (centres unmarked) | 1.27
57 | Cc1c(C(=O)O)oc2cc(O)ccc12 | -6.52
58 | COc1ccc(-c2cc(C)no2)cc1S(=O)(=O)NCc1ccc2c(c1)OCO2 | -7.06
59 | CCOc1ccc2nc(C)c(C/C=C(/C)Cl)c(Cl)c2c1 | -5.62
60 | COc1cc(CN2CCN(C3CCCCC3)CC2)cc(OC)c1OC | 3.36
61 | CCCN(CCC)C(=O)CSc1nc2nc(C)cc(C)n2n1 | -5.8
62 | CC1=C(C(=O)Nc2ccccc2)C(c2cccc(Br)c2)n2ncnc2N1 (centres unmarked) | 0.189
63 | COc1ccc(CNc2nc(-c3ccc(Cl)cc3)nn2C(=O)C(C)C)cc1 | 3.93
64 | CC(C)(C)C(/C=C/c1ccc(Cl)cc1Cl)n1nnnc1C(C)(C)N1CCOCC1 (centres unmarked) | -0.615
65 | COc1ccc(C(=O)OCCN2CCN(C3=NS(=O)(=O)c4ccccc43)CC2)cc1 | 2.17
66 | Nc1ccc(Cl)cc1SCC(=O)O | 9.4
67 | CN1CCN(CCC(=O)Nc2ccc(OC(F)(F)Cl)cc2)CC1 | -1.28
68 | CCOC(=O)N1CCN(Cc2nc3c(c(=O)n(C)c(=O)n3C)n2Cc2cc(C)ccc2C)CC1 | -4.14
69 | COCCNC(=O)c1oc2ccc3c(c2c1C)C(=O)CC(C)(c1ccc(Cl)cc1)O3 (centres unmarked) | 5.91
70 | CCC(C)NC(=O)c1ccccc1NC(=O)CN(c1ccc(Br)cc1)S(C)(=O)=O (centres unmarked) | -16
71 | O=S(=O)(Cc1nc2ccccc2[nH]1)Cc1nc2ccccc2[nH]1 | -0.424
72 | Cc1ccc(NC(=O)c2cccnc2)c(C)c1 | 0.843
73 | Cc1c(/C=C2\SC(=O)NC2=O)cc(-c2ccccc2)n1-c1ccccc1 | 2.38
74 | COc1cc(OC)cc(C(=O)Nc2cc(C)ccc2C)c1 | 2.82
75 | CC(=O)N1CCc2c(sc3c2c(=O)n(CCc2ccccc2)c(=O)n3Cc2ccccc2)C1 | 6.66

Row | SMILES | % Inhibition @ 10 uM [%]
76 | CCN(CC)CC(O)COc1cc([N+](=O)[O-])ccc1N1CCCC1 (centres unmarked) | 3.54
77 | O=C(NCc1cc(Br)cc(Br)c1O)c1ccccc1 | -2.66
78 | N#CC1=C(N)N(c2nc[nH]n2)C2=C(C(=O)CC(c3ccccc3)C2)C1c1ccc(Br)cc1 (centres unmarked) | -2.77
79 | N#CC1=C2N=C(N)c3c(sc4c3C3CCN4CC3)N2C2=C(C(=O)CCC2)C1c1ccccc1F (centres unmarked) | -4.73
80 | O=C1NC(c2ccc(OC3CSC3)cc2)Nc2ccccc21 (centres unmarked) | -0.865
81 | COCc1nc2ccccc2n1CC(C)C | -4.07
82 | CN1CCN(C(=O)N[C@@H](Cc2ccccc2)C(=O)N[C@H](/C=C/S(=O)(=O)c2ccccc2)CCc2ccccc2)CC1 | -2.35
83 | CC(C)(C)C1CCC(N2CCN(C/C=C/c3ccccc3)CC2)CC1 (centres unmarked) | 0.472
84 | O=C(NCc1ccccc1F)Nc1cccc(Cl)c1 | 0.512
85 | O=C(N[C@@H](Cc1ccc2ccccc2c1)C(=O)N[C@@H](CCc1ccccc1)C(=O)C[N+](=O)[O-])C1CCNCC1 | 0.744
86 | COc1ccc(NC(=O)C2CCC(=O)N2C(=O)OCc2ccccc2)cc1 (centres unmarked) | 0.24
87 | COc1ccc(-c2nc3ccccn3c2C=O)cc1 | -0.703
88 | Cc1cc(NS(=O)(=O)c2ccc(NC(=O)c3ccco3)cc2)no1 | -0.759
89 | CC(=O)N1CCC(=O)N(Cc2ccccc2)c2ccccc21 | -6.43
90 | CC1=NN(c2nc3ccccc3[nH]2)C(=O)C1CCC(C)C (centres unmarked) | -3.33
91 | Cc1ccc(C)c(CN2CCCN(C(=O)Cn3ncc4c3-c3ccccc3OC4)C2)c1 | -0.692
92 | CCCn1c(=O)c(C(=O)Nc2nc(-c3ccc(Br)cc3)cs2)c(O)c2ccccc21 | -4.91
93 | CC(C)Cn1c(CN2CCN(C)CC2)nc2c1c(=O)n(C)c(=O)n2C | -5.1
94 | COC(=O)c1cccnc1-n1c(=O)c2cccnc2n(Cc2cccc(OC)c2)c1=O | 2.83
95 | CCCN1CCN(C(=O)CCc2c(C)n(CC)c3cc(-c4ccccc4OC)nn3c2=O)CC1 | -6.09
96 | CCN(CC)CCN(C)Cc1cccc(O)c1 | -1.5
97 | O=C(O)/C(Cl)=C(Cl)/C=N/c1nc[nH]n1 | 4.95
98 | OC12CCCCC1C(c1cccc(Oc3ccc(Cl)cc3)c1)NCC2 (centres unmarked) | -5.48

From publication PMC6919601, “Identification of Plasmodium dipeptidyl aminopeptidase allosteric inhibitors by high throughput screening” (PLoS ONE, 2019)
